The campaign covered roughly 310,000 compounds. About 14,000 (4.5%) showed an effect of 50% or more. The effect is printed as a negative number. The list shows a part of the results.
target: human ether-à-go-go-related gene (hERG) potassium channel (human, UniProt Q12809); assay: primary screen, population patch clamp on CHO cells stably expressing hERG
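Note: peak tail current of the secondary pulse compared with the same well before compound.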

human ether-à-go-go-related gene (hERG) potassium channel, sequence (Q12809 whole entry, looked up): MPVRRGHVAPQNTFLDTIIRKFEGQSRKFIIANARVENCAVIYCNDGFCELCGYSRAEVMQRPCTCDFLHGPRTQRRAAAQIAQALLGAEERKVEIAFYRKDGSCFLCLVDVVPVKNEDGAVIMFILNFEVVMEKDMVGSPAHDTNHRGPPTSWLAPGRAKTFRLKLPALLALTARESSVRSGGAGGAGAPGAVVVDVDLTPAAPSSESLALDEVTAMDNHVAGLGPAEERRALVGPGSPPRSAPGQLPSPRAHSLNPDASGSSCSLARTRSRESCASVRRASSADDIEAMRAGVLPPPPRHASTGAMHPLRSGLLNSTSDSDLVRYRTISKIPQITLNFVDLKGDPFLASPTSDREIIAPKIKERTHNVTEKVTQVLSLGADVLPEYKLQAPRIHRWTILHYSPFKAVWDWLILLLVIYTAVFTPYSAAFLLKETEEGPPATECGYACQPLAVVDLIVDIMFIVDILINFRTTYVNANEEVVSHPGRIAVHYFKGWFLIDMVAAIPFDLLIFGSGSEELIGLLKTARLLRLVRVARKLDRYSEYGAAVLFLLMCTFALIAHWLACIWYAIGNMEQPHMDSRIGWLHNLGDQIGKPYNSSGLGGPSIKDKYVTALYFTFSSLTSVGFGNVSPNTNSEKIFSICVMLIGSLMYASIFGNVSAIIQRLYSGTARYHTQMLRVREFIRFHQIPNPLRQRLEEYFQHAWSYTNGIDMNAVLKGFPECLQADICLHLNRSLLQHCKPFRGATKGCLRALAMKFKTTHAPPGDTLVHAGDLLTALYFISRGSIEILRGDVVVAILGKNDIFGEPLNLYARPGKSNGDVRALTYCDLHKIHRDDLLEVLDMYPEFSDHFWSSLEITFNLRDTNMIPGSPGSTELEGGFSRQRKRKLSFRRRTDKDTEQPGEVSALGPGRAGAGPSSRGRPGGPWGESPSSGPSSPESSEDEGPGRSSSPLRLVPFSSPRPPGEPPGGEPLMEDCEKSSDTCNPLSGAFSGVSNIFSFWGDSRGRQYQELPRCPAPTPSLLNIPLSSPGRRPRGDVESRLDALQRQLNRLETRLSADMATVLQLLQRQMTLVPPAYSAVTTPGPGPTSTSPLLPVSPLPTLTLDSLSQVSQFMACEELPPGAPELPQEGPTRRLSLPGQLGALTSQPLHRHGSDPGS

SMILES | hERG current change (%, negative = inhibition) at 10uM [%]
CCN(CC)C(=O)NC(c1ccc(C)c(F)c1)C(Cl)(Cl)Cl (stereo not shown) | 9.8
COc1ccccc1C(CCN(Cc1ccccc1)C(C)=O)c1ccco1 (stereo not shown) | -25.5
Cn1c(=O)c2c(O)c(Cc3ccccc3)c(=O)n(C)c2n(C)c1=O | -3.06
Cc1cc(C)cc(NC(=O)C(c2ccccc2)N2CCN(CC(=O)NC3CC3)CC2)c1 (stereo not shown) | -28.3
COc1ccc(NC(=O)NCc2cccnc2)cc1 | -1.56
CN(CC(=O)Nc1ccccc1C(F)(F)F)C(=O)Cn1c(=O)oc2ccccc21 | 7.61
Cc1ccc(C)c(SCC(=O)NCc2ccco2)c1 | 2.13
CCOC(=O)C1=C(c2ccccc2)NC(=S)NC1c1cccc([N+](=O)[O-])c1 (stereo not shown) | 12.8
CC(c1ccccn1)N(C)C(=O)c1ccc2nc(Cc3ccccc3F)oc2c1 (stereo not shown) | 1.56
COc1cccc(OC)c1C(=O)Nc1cc(C)on1 | 7.22
Cc1nn(-c2ccc(F)cc2)c(Cl)c1C(=O)OC(C)C(=O)N(C)C1CCCCC1 (stereo not shown) | -59
Cc1cc(NC(=O)CCC(=O)N(CC(=O)NC2CCCC2)c2ccc(C)c(F)c2)no1 | 4.13
COc1ccc(CCNC(=O)c2cccs2)cc1OC | 30.7
COc1cccc(CN2CCNC(=O)C2CC(=O)N(C)CC2CCOCC2)c1 (stereo not shown) | 15
Fc1ccc(CN2CCN(c3ncnc4scc(-c5ccccc5)c34)CC2)cc1 | -39.9
CCn1c(SCC(=O)Nc2cc(Cl)ccc2OC)nnc1C1CC1 | -5.66
COC(=O)c1ccc(Sc2ccc(Cl)cc2)c(N)c1 | -2.44
CC1=CC(C)(C)N(C(=O)CSc2nnc(-c3ccccc3)o2)c2ccc(C)cc21 | 6.56
O=C1CC(c2ccco2)CC(O)=C1C=NCCN1CCN(C(=S)Nc2ccccc2)CC1 (stereo not shown) | -54.1
O=C(Oc1ccc(Cl)cc1)c1ccc(COC(=O)c2cnccn2)cc1 | 14.9
Cc1ccc(NC(=O)c2cc(-c3ccc4c(c3)OCO4)on2)cc1C | 8.36
CCOc1ccccc1NC(=O)C(Sc1nnc2ccccn12)c1ccccc1 (stereo not shown) | -12.5
O=C(Nc1cccnc1)c1cccc(-c2cc3ccccc3oc2=O)c1 | 14.5

SMILES | hERG current change (%, negative = inhibition) at 10uM [%]
Cn1c(=O)c2c(ncn2CC(=O)OCC(=O)Nc2ccccc2)n(C)c1=O | 1.9
CCn1c2ccccc2c2nnc(SCC(=O)N(C)C3CCS(=O)(=O)C3)nc21 (stereo not shown) | -21
CCNC(=S)N/N=C/c1ccc(OCc2ccc(C(=O)OC)cc2)cc1 | -10.3
COCc1c(C(=O)NCC2COc3ccccc3O2)oc2ccccc12 (stereo not shown) | -30.1
COc1ccccc1NC(=O)N(C1CCCC1)C1CCN(C(C)=O)CC1 | -11.9
COc1cc2c(cc1C1C(C#N)=C(N)OC3=C1C(=O)CC(C)(C)C3)OCO2 (stereo not shown) | -9.92
CCOc1ccc(S(=O)(=O)NCCC(=O)N(C)CC(=O)Nc2ccc(OC)cc2)cc1 | 7.12
O=C(CCCn1c(SCc2cccc(F)c2)nc2ccccc2c1=O)NCC1CCCO1 (stereo not shown) | 8.35
Cc1cc2cc(CNC(=O)c3cccc([N+](=O)[O-])c3)ccc2n1C | 6.74
Cc1cc(/C=C2/C(=O)NC(=O)N(Cc3ccco3)C2=O)c(C)n1-c1ccc(C(=O)O)cc1 | 10.3
CCn1cc(C(=O)O)c(=O)c2cc(F)c(N/N=C/c3ccccc3[N+](=O)[O-])cc21 | -51.2
O=C(O)CN=C1NC2(CCCCC2)Cc2ccccc21 | 2.54
O=C(COc1ccc(Br)cc1CO)Nc1ccccc1F | -2.36
O=C(CSc1nc(C2CCCCC2)nc2ccccc12)NCc1ccco1 | -1.06
Cc1cccc(Cn2ncc(Cl)c(Cl)c2=O)c1 | 3.59
CCc1n[nH]c(=S)n1/N=C/c1c(O)ccc2ccccc12 | 15.2
CC1(C)c2[nH]c3ccccc3c2C[C@H]2C(=O)N(N)CC(=O)N21.Cl | 19
O=C(c1ccc2c(c1)OCO2)C1CCCN(C(=O)Nc2ccc(F)cc2F)C1 (stereo not shown) | -30
S=C(Nc1cccnc1)Nc1cccc2cnccc12 | 14
COC(=O)Cc1ccc(OC(=O)CCS(=O)(=O)c2ccc(C)cc2)cc1 | 22.2
C[n+]1cccc(O)c1SCc1ccccc1.[Br-] | -8
CCC(C)NC(C(=O)Nc1ccc(Cl)c([N+](=O)[O-])c1)c1ccccc1.O=C(O)C(=O)O (stereo not shown) | -13.2
O=S(=O)(c1ccccc1Cl)N1CCC(Cc2ccccc2)CC1 | 7.47

SMILES | hERG current change (%, negative = inhibition) at 10uM [%]
COc1ccc(OC)c(Cc2nnc(CCC(=O)N3CCCCC3)o2)c1 | 11.4
COc1cc(CC(=O)NCC2COc3ccccc3O2)cc(OC)c1OC (stereo not shown) | 8.63
O=C(NCc1ccc2c(c1)OCO2)C1CCN(S(=O)(=O)c2cccs2)CC1 | -4.43
CC(C)C(=O)NC(c1ccc(Cl)cc1Cl)c1ccc2cccnc2c1O (stereo not shown) | -1.82
NC1=NC(=O)C2(COC(c3ccccc3Cl)OC2)S1 (stereo not shown) | 5.91
[O-][n+]1onc2c3ccnnc3ccc21 | 12.5
C=CCNC(=O)c1ccc(CN2CCC(Cc3ccccc3)CC2)cc1 | -66.8
CC1(C)C(=O)OC(C(=O)c2ccccc2)C(C)(C)C1=O (stereo not shown) | -17
Nc1ccc(SCc2cccnc2)cc1 | 17.4
O=C1c2ccccc2S(=O)(=O)c2cc(N3CCc4ccccc4C3)ccc21 | -10.9
O=Cc1c(NCc2ccc(Cl)cc2)c2ccccc2[nH]c1=O | -9.72
CCOC(=O)c1cnn(CCOC(=O)c2ccc(OC)cc2)c1NC(=O)c1ccc(OC)cc1 | -15
O=c1[nH]c(Cc2ccccc2)nc2scc(-c3ccccc3)c12 | 17.6
CC(=O)Nc1cc(Cl)c(N=Cc2ccc(O)cc2O)cc1Cl | 0.7
O=C(O)C1CCC(=O)N1Cc1ccc(F)cc1 (stereo not shown) | -3.97
O=C(NC(=S)Nc1ccc2[nH]ncc2c1)c1ccccc1 | 2.54
CCOc1ncccc1C(=O)N=c1sccn1C | 26.8
N#CCCN(C(=O)COC(=O)C1=COCCO1)c1ccc(F)cc1 | 12.9
CC(=O)Nc1ccc(NC(=O)CCS(=O)(=O)c2ccc3c(c2)oc(=O)n3C)cc1 | 17.7
CC1CCN(S(=O)(=O)c2ccc3c(c2)c(=O)c(C(=O)N2CCOCC2)cn3C)CC1 | 13.5
O=[N+]([O-])c1ccc(O)c(C=Nc2ccc3c(c2)OCO3)c1 | 2.71
O=c1cc(CO)oc(CN2CCC(Cc3ccccc3)CC2)c1O | 11.6
Cc1cc(OC(C)C(=O)Nc2ccncc2)ccc1Cl (stereo not shown) | -27

SMILES | hERG current change (%, negative = inhibition) at 10uM [%]
COC(=O)C/C(O)=C(/N=Nc1cccc(C(F)(F)F)c1)C(=O)OC | 16
c1ccc(-c2cnc(-c3ccccn3)nn2)cc1 | 18.6
CC1CCN(C(=O)c2cc3ccccc3o2)CC1 | -19.1
Cc1ccccc1NC(=S)N1CCCC1 | -6.12
Cc1ccccc1NC(=O)CSc1nc(=O)n(CCN2CCOCC2)c2c1CCCC2 | -18.8
CCOc1ccc(CNc2ccc(N3CCCC3)cc2)cc1 | -4.01
COc1ccc2c(c1)C=Cc1ccccc1O2 | 5.84
CC(=O)Oc1ccc(C(=O)Nc2cccc3c2CCCC3)cc1 | 10.4
CCC(CC)NC(=O)Nc1ccccc1C | 15.3
CCn1ccc(-c2ccccc2)c(C#N)c1=O | -7.46
CCCS(=O)(=O)N1CCN(CCN2C(=O)c3cccc4cccc(c34)C2=O)CC1 | -8.42
CCCn1c2ccccc2c2cc(C(=O)O)ccc21 | 6.24
COC(=O)c1ccccc1NC(=O)c1cc2n(n1)C(C(F)F)CC(C(F)F)N2 (stereo not shown) | 14
O=C(C1CCN(S(=O)(=O)c2ccccc2[N+](=O)[O-])CC1)N1CCOCC1 | 4.39
CN(CC(O)CON=C1c2ccccc2-c2ccccc21)S(=O)(=O)c1ccc(Br)cc1 (stereo not shown) | 11.9
COC(=O)c1cc(OC)c(OC)cc1NC(=O)Nc1cccc(C(C)=O)c1 | 32
COc1ccc(C(=O)/C=C/Nc2cc(C)on2)c(OC)c1 | -6.33
Fc1ccc(-c2ccnc3nc(N4CCOCC4)nn23)cc1 | -3.58
O=C(NCC1CCCO1)C(Cc1ccccc1)N1C(=O)C2C3C=CC(C4CC34)C2C1=O (stereo not shown) | -12.7
COc1cc(OC)c2ccc(=O)oc2c1C(CC(=O)N1CCCC(C)C1)c1ccc2c(c1)OCO2 (stereo not shown) | 4.24
Cc1nc2ccccc2c(=O)n1CCCN1CCOCC1 | 18.3
CCOC(=O)c1c(C(=O)OCC)c(C)n(N2C(=O)CSC2=S)c1C | 16.2
